# Measured values reported in the supplement of paper PMC9588766.
# Counter-ions that a name gives are not always drawn. ± gives the standard deviation of the averaged measurements. Over roughly 2,000 compounds, “cell viability relative to DMSO control (compound alone)” has its median near 0.98; the lowest 2% begin near 0.23. This is one part of the list.
# System: PDC-DUC18828
# Test: cell viability relative to DMSO control (compound alone) (fraction); PDC-DUC18828 is a patient-derived cholangiocarcinoma cell line; higher = less growth inhibition
# Details: 1 µM; 72 h
# Experimental: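 Selleck Bioactive library screen in the patient-derived FGFR2-G3BP2 fusion-positive ICC cell line PDC-DUC18828 (500 cells/well). Each compound was tested at 1 uM alone, in triplicate, for 72 h. Viability was read by CellTiter-Glo and normalised to plate DMSO controls.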
row,Compound,cell viability
1,C[C@@H]1C[C@H]2[C@@H]3CCC4=CC(=O)C=C[C@]4(C)[C@@]3(F)[C@@H](O)C[C@]2(C)[C@@]1(O)C(=O)CO [Dexamethasone (DHAP)],0.999 ± 0.039
2,OC1(c2ccc(Cl)c(C(F)(F)F)c2)CCN(CCCC(c2ccc(F)cc2)c2ccc(F)cc2)CC1 [Penfluridol],0.883 ± 0.073
3,CC(C)Oc1ccc(C(=O)N[C@H](CNC(=O)CN(C)C)Cc2ccc(-c3cn4cccc([C@H](C)O)c4n3)cc2)cc1Cl,0.393 ± 0.031
4,O=C(O)CCCc1ccccc1 [Sodium Phenylbutyrate],0.976 ± 0.046
5,Cc1cnc(NC(=O)C2=C(O)c3ccccc3S(=O)(=O)N2C)s1 [Meloxicam],0.934 ± 0.032
6,CC1(C)O[C@@H]2C[C@H]3[C@@H]4CCC5=CC(=O)C=C[C@]5(C)[C@@]4(F)[C@@H](O)C[C@]3(C)[C@]2(C(=O)CO)O1 [Triamcinolone Acetonide],0.942 ± 0.062
7,CCCCCCCCCCCCCCCC(=O)O[C@@H]1[C@@H](O)[C@@H](O)[C@@H]([C@H](NC(=O)[C@@H]2C[C@@H](CCC)CN2C)[C@H](C)Cl)O[C@@H]1SC [Clindamycin palmitate HCl],1.06 ± 0.028
8,CNc1cccc(CCOc2ccc3c(c2)CN(CC(F)(F)F)C(=O)[C@H](CC(=O)O)C3)n1,0.85 ± 0.13
9,CC(=O)Nc1ncc([N+](=O)[O-])s1 [Nithiamide],1.01 ± 0.045
10,CCOCC(O)COc1ccc(NC(=O)CC[S+](C)C)cc1 (stereo unspecified) [Suplatast Tosylate],1.08 ± 0.026
11,CN1CCN(CCOc2cc(OC3CCOCC3)c3c(Nc4c(Cl)ccc5c4OCO5)ncnc3c2)CC1 [Saracatinib (AZD0530)],0.878 ± 0.058
12,CCC(=O)c1c(O)cc(O)cc1O [Flopropione],0.989 ± 0.029
13,C=CC(=O)Nc1ccc2ncnc(Nc3cccc(Br)c3)c2c1,0.703 ± 0.051
14,O=C(/C=C\n1cnc(-c2cc(C(F)(F)F)cc(C(F)(F)F)c2)n1)NNc1ccccn1 [Verdinexor (KPT-335)],0.407 ± 0.056
15,CC1Cc2ccccc2N1NC(=O)c1ccc(Cl)c(S(N)(=O)=O)c1 (stereo unspecified) [Indapamide],1.04 ± 0.026
16,O=c1cc[nH]c(=S)[nH]1 [2-Thiouracil],0.96 ± 0.03
17,O=C(/C=C/c1ccc(CN(CCO)CCc2c[nH]c3ccccc23)cc1)NO [LAQ824 (Dacinostat)],0.141 ± 0.0096
18,Cc1nc(-c2cn3c(n2)-c2ccc(-c4cnn(C(C)(C)C(N)=O)c4)cc2OCC3)n(C(C)C)n1,0.842 ± 0.096
19,CC(C)(C)c1ccc(-c2nc3ccccc3[nH]2)cc1,0.862 ± 0.028
20,COc1ccc(S(=O)(=O)N(C(C)=O)c2ccccc2/C=C/c2cc[n+]([O-])cc2)cc1,0.581 ± 0.044
21,Cc1c(F)cc(C(=O)NC2CC2)cc1-c1ccc(C(=O)NCC(C)(C)C)cn1,1.05 ± 0.02
22,O=C(NOC[C@H](O)CO)c1ccc(F)c(F)c1Nc1ccc(I)cc1F,0.782 ± 0.031
23,CC(C)c1cc(-c2ccc(F)c3ccccc23)nc(N)n1,1.05 ± 0.043
24,Cc1cc(C)c(/C=C2\C(=O)Nc3ccccc32)[nH]1 [Semaxanib (SU5416)],1 ± 0.036
25,CC[C@H]1OC(=O)[C@H](C)[C@@H](O[C@H]2C[C@@](C)(OC)[C@@H](O)[C@H](C)O2)[C@H](C)[C@@H](O[C@@H]2O[C@H](C)C[C@H](N(C)C)[C@H]2O)[C@](C)(O)C[C@@H](C)[C@@H]2N[C@@H](COCCOC)O[C@H]([C@H]2C)[C@]1(C)O [Dirithromycin],1.06 ± 0.085
26,O=C1CC2(CCCC2)CC(=O)N1CCCCN1CCN(c2ncccn2)CC1 [Buspirone HCl],0.9191 ± 0.0039
